SMILES strings stand for the structures. The list shows a part of the results. Most values come without repeats; read them as rough.
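Further: cell number obtained by counting DAPI-stained nuclei in high-throughput microscope images with image analysis software, screen run in 1,536-well plates.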

This assay has as its system SkMel5. Put plainly: cell count relative to DMSO control; melanoma cells; higher = more viable cells. The conditions noted are these: library dose: low library concentration; 72 h.
`Nc1ncn([C@H]2C[C@H](O)[C@@H](CO)O2)c(=O)n1` [decitabine] + CC(C)(C)c1cnc(CSc2cnc(NC(=O)C3CCNCC3)s2)o1 [SNS-032] (first compound 0.1 µM, partner dose 0.01 µM) registered a cell count of 98.9%.
As for `Nc1ccn([C@@H]2O[C@H](CO)[C@@H](O)C2(F)F)c(=O)n1` [gemcitabine] + COc1ccc2c(c1)CCC1C2CCC2(C)C(NCCCCCCN3C(=O)C=CC3=O)CCC12 [U73122] (first compound 0.0004 µM, partner dose 0.4 µM), the figure is 112%.
The value for `Nc1ncn([C@H]2C[C@H](O)[C@@H](CO)O2)c(=O)n1` [decitabine] + COc1cc2c(Oc3ccc4[nH]c(C)cc4c3F)ncnc2cc1OCCCN1CCCC1 [cediranib] (first compound 0.1 µM, partner dose 0.4 µM) was 96.6%.
As for `Nc1ncn([C@H]2C[C@H](O)[C@@H](CO)O2)c(=O)n1` [decitabine] + CN(C)S(=O)(=O)c1ccc2c(c1)/C(=C/c1cc3c([nH]1)CCCC3)C(=O)N2 [SU6656] (first compound 0.1 µM, partner dose 0.4 µM), the figure is 103%; as for `CC(=O)O[C@@]12CO[C@@H]1C[C@H](O)[C@@]1(C)C(=O)[C@H](O)C3=C(C)[C@@H](OC(=O)[C@H](O)[C@@H](NC(=O)OC(C)(C)C)c4ccccc4)C[C@@](O)([C@@H](OC(=O)c4ccccc4)[C@H]21)C3(C)C` [Docetaxel] + COc1cc(N2CCC(N3CCN(C)CC3)CC2)ccc1Nc1ncc(Cl)c(Nc2ccccc2S(=O)(=O)C(C)C)n1 [NVP-TAE684] (first compound 0.0001 µM, partner dose 0.08 µM), 78.2%.
